Measured values published in article PMC2644682.
These are yes or no findings as the source states them, for the method shown. Binding seen in cells or lysates may run through a third protein. Some binding calls cover weakened binding; strength is not graded here. For part of these data: Sequences can lack the tags named with a protein.

Sequences of proteins named here, by UniProt entry; tags and fusion partners are left off. Residues count along the entry.
UniProt Q969L2: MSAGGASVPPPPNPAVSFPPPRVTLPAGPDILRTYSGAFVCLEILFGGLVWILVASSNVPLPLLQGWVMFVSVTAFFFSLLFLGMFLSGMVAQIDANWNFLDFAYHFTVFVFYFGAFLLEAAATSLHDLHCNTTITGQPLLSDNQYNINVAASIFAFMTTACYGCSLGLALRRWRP
UniProt P15941, residues 24-1255: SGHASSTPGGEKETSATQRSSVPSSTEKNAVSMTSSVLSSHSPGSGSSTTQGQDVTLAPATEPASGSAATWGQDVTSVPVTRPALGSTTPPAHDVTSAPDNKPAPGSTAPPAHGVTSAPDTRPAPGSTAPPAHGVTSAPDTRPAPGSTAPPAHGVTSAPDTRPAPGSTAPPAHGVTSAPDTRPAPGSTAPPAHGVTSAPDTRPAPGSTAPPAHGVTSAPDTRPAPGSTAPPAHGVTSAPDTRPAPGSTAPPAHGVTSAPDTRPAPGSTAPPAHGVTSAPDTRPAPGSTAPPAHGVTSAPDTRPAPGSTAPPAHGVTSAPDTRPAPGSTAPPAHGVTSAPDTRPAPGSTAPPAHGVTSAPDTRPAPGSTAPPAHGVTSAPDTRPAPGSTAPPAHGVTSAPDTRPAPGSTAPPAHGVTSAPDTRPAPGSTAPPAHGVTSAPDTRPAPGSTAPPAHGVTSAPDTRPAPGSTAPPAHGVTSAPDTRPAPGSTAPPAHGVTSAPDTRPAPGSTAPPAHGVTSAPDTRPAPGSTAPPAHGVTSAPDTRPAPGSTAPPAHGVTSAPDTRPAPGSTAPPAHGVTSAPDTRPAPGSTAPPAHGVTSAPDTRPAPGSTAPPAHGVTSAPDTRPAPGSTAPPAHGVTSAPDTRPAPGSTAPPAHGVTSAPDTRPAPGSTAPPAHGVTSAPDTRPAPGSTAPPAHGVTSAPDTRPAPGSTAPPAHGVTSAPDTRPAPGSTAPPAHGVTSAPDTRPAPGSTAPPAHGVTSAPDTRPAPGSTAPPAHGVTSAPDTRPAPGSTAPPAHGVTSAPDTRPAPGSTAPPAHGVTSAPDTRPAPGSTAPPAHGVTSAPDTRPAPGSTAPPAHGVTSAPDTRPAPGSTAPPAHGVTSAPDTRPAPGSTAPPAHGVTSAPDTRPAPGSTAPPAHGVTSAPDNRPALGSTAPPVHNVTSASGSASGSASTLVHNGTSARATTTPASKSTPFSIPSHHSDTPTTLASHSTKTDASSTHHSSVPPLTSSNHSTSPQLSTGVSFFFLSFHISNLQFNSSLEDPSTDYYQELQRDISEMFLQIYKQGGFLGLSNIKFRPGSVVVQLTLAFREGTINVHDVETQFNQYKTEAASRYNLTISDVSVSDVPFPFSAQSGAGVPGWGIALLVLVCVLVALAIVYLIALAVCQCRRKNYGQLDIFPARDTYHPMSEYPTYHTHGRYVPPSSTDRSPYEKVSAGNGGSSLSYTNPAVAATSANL

B1: D52, endogenous in MCF-10A/Myc-MAL2 cells (protein, UniProt P55327 1-224)
chain: MDCREMDLYEDYQSPFDFDAGVNKSYLYLSPSGNSSPPGSPTLQKFGLLRTDPVPEEGEDVAATISATETLSEEEQEELRRELAKVEEEIQTLSQVLAAKEKHLAEIKRKLGINSLQELKQNIAKGWQDVTATSAYKKTSETLSQAGQKASAAFSSVGSVITKKLEDVKNSPTFKSFEEKVENLKSKVGGTKPAGGDFGEVLNSAANASATTTEPLPEKTQESL

Columns and labels:
[1] = molecular target: Myc-tagged MAL2 (pCR3.1/Myc-MAL2) in MCF-10A/Myc-MAL2 cells (human) (UniProt Q969L2); test: co-IP; pooled Triton X-100-soluble sucrose gradient fractions (5–8 and 9–12) of MCF-10A/Myc-MAL2 cells extracted with 1% Triton X-100 at 4°C; MAL2 antisera, blot with MUC1 monoclonal antibody
[2] = molecular target: MAL2, endogenous in MCF-7 and MDA-MB-435 cells (human (endogenous in MCF-7 and MDA-MB-435)) (UniProt Q969L2); test: co-IP; MCF-7 cells and MUC1-transfected MDA-MB-435 cells; data not shown
[3] = molecular target: Myc-tagged MAL2 (pCR3.1/Myc-MAL2) in MCF-10A/Myc-MAL2 cells (human) (UniProt Q969L2); test: co-IP; total lysate of MCF-10A/Myc-MAL2 cells; BC2 with protein G-agarose, c-Myc or rabbit MAL2 antisera with protein A-Sepharose, 4°C, 16 h; lysis buffer 10 mM Tris with 1 mg/ml saponin for MAL2 and D52, SDS lysis buffer for MAL2 and MUC1; Western blot
[4] = molecular target: Myc-tagged MAL2 (pCR3.1/Myc-MAL2) in MCF-10A/Myc-MAL2 cells (human) (UniProt Q969L2); test: condition: only pooled Triton X-100-insoluble fractions 1–4 (which include lipid rafts); co-IP; pooled sucrose gradient fractions 1–4 (Triton X-100-insoluble, include lipid rafts) of MCF-10A/Myc-MAL2 cells extracted with 1% Triton X-100 at 4°C; MAL2 antisera, blot with MUC1 monoclonal antibody
[5] = molecular target: MUC1, endogenous in breast cell lines (human (endogenous in MCF-10A and MCF-7)) (UniProt P15941); test: co-IP; total lysate of MCF-10A/Myc-MAL2 cells; BC2 with protein G-agarose, c-Myc or rabbit MAL2 antisera with protein A-Sepharose, 4°C, 16 h; lysis buffer 10 mM Tris with 1 mg/ml saponin for MAL2 and D52, SDS lysis buffer for MAL2 and MUC1; Western blot

| Molecule | binding [1] | binding [2] | binding [3] | binding [4] | binding [5] |
| --- | --- | --- | --- | --- | --- |
| MUC1, endogenous in breast cell lines (from UniProt P15941 24-1255) | binds | binds | binds | no binding | – |
| Myc-tagged MAL2 (pCR3.1/Myc-MAL2) in MCF-10A/Myc-MAL2 cells (from UniProt Q969L2 1-176) | – | – | – | – | binds |
| B1 | – | – | binds | – | – |
